Test results taken from PubChem BioAssay AID488969 (Vanderbilt High Throughput Screening Facility, 2010).
The full ranking holds about 110,000 compounds; the median of “z-score” is about -0.1, and the highest 2% start at about 2. The list shows a part of the results. Active and inactive are the calls of the source.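 Rule for the calls: active = z-score in the third read window above 3 or below -3; inactive = the rest.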

Molecular target: Metabotropic glutamate receptor 8 (Rattus norvegicus) (UniProt P70579)
Chain of UniProt P70579 (P70579 whole entry, looked up): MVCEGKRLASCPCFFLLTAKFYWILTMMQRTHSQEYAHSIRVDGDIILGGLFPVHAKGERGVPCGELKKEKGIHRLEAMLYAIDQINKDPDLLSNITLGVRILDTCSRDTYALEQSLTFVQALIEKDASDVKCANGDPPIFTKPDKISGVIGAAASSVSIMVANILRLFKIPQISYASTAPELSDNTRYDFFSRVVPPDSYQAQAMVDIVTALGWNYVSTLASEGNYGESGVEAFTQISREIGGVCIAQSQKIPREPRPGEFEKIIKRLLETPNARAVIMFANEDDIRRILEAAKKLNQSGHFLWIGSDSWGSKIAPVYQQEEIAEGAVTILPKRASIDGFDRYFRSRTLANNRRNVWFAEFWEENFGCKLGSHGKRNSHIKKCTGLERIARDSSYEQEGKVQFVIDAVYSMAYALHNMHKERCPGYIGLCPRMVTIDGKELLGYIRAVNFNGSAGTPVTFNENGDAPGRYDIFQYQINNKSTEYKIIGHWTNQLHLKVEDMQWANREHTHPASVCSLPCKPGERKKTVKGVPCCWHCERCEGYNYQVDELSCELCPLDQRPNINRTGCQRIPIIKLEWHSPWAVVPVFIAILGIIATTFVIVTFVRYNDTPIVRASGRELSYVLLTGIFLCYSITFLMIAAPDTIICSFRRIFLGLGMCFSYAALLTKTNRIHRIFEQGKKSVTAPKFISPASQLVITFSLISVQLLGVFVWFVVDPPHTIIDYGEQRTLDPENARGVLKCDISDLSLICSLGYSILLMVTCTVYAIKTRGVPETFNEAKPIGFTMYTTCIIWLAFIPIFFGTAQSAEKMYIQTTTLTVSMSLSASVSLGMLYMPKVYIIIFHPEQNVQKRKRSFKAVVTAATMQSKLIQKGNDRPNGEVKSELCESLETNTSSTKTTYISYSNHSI
Experiment: mGluR8 Gi/Go-coupled signaling modulation – cell-based, rat, thallium flux, HTS, primary screen (AID 488969)
Settings: HEK293 rat mGluR8, GIRK (G protein-gated inwardly rectifying potassium channel) thallium flux, FluoZin2; at 10 µM; stronger effect = higher value; submaximal glutamate (EC20) added with thallium

Compound | z-score
Cc1cccnc1NC(=O)C(C)Oc1ccccc1 (stereo not drawn) | 0.264
O=c1ccc(Oc2nc(N3CCOCC3)nc(N3CCOCC3)n2)n[nH]1 | 0.106
CCN(CC(=O)NC(=O)NCc1ccco1)Cc1nc2ccccc2c(=O)[nH]1 | -0.124
COc1cccc(N2CCN(c3ncnc4c3[nH]c3ccc(F)cc34)CC2C)c1 (stereo not drawn) | -0.441
CCOC(=O)NC1(Nc2ccc(Cl)cn2)Oc2ccccc2O1 | 0.12
Cc1cccc(Nc2nc(-c3ccc4c(c3)OCCO4)cs2)c1 | 0.0122
COc1ccc(/C=N\NC(=O)COc2ccccc2Cl)cc1Cn1nc(C)cc1C | -0.212
O=c1c2c(nc3n1CCCCC3)sc1c(O)c(Br)ccc12 | 0.386
O=C(NCCc1ccccc1)C(=O)N/N=C/c1ccccc1C(F)(F)F | 0.0539
Cc1nnc(NC(=O)COc2ccccc2)s1 | -0.0838
COCCCNC(=S)NNC(=O)c1cccnc1 | -0.216
COC(=O)Cc1c(C)c2ccc(OCC(C)=O)c(C)c2oc1=O | 0.148
COc1ccc(OC)c(NC(=O)Cn2c(CCC(=O)O)ccc2-c2ccccc2)c1 | -0.23
O=C1c2cccc3cccc(c23)C(=O)N1OS(=O)(=O)c1ccc(Br)cc1 | 0.431
COc1cc(/C=N/OCC(=O)NC23CC4CC(CC(C4)C2)C3)ccc1OCc1ccccc1 | 0.0285
COc1ccccc1C(=O)Nc1ccc(C(=O)/C=C/c2cccs2)cc1 | 0.0741
CCc1nnc(NC(=O)CSc2nc(-c3ccc(F)cc3)cc(-c3ccccc3)c2C#N)s1 | 2.35
O=C(CN1C(=O)COc2ccccc21)NCCN1CCC(Cc2ccccc2)CC1 | 0.921
COC(=O)c1ccc(C(=O)OC)nc1 | -0.118
COc1ccccc1CC(=O)N1CCN(c2ccccn2)CC1 | 0.0409
Fc1ccc(CSc2nnc(-c3cc4c(s3)-c3ccccc3CC4)o2)cc1 | -0.19
Cc1ccc(C(C(=O)NC(C)(C)C)N(Cc2cccs2)C(=O)c2ccc3c(c2)OCCO3)cc1 (stereo not drawn) | -0.27

Compound | z-score
CCOC(=O)c1c(C)nn(Cc2cccc(Cl)c2)c1N | -0.392
N#Cc1c(NC(=O)c2ccc(Cn3cc(Br)cn3)o2)sc2c1CCCCC2 | -0.86
CCOc1ccc(C2C(C#N)=C(N)Oc3nc[nH]c(=O)c32)cc1OC (stereo not drawn) | 0.585
O=C(NCC1CCCO1)c1sc2cc(Cl)ccc2c1Cl (stereo not drawn) | -0.499
O=C(CNC(=O)c1ccc(F)cc1)N/N=C/c1ccc(O)c([N+](=O)[O-])c1 | -0.387
O=C(COc1ccccc1Cl)OCC(=O)N1CCN(S(=O)(=O)c2ccccc2)CC1 | -0.247
COCCn1c(CNc2ccc(F)cc2)nnc1SCC(=O)Nc1ccc(OC)cc1OC | -0.09
CN(C)S(=O)(=O)c1cccc(NC(=S)Nc2cc(Cl)cc(Cl)c2)c1 | active: 8
CCCCNC(=S)N(Cc1c(C)noc1C)c1ccccc1 | -0.268
CC(C)n1c(-c2ccco2)csc1=Nc1cccnc1 | -0.3
O=C(CSc1nnc(-c2ccco2)n1Cc1ccccc1)NCc1ccccc1 | -0.243
CCOc1ccc(CNC(=O)C2CCN(S(=O)(=O)N3CCCC3)CC2)cc1OC | -0.108
CCc1nnc(NC(=O)Cn2nc(-c3ccccc3OC)ccc2=O)s1 | 0.121
Clc1ccc(Oc2cnns2)c(Cl)c1 | -0.233
Fc1ccc(-c2cc(-c3nnc4n3CCCCC4)c3ccccc3n2)cc1 | -0.316
O=C(NC1CCCCC1)C(c1ccc2ncccc2c1)N(Cc1ccc2c(c1)OCO2)C(=O)c1cccs1 (stereo not drawn) | 0.00177
CCCCOc1ccccc1NC(=O)c1ccc(=O)[nH]c1 | 0.312
CCOC(=O)c1c(CSc2nc(C)cc(C)c2C#N)n(C)c2cc(Br)c(OC(C)=O)cc12 | -0.463
CCOc1ccccc1N1CCN(C(=O)Nc2ccc(Cl)c(Cl)c2)CC1 | -0.071
COc1cccc(NC2c3ccccc3C(=O)N2Cc2ccco2)c1 (stereo not drawn) | -0.544
O=C(O)C1CCCCC1C(=O)NCCc1ccc(Cl)cc1 (stereo not drawn) | -0.235
COc1ccc(NC(=O)COC(=O)CCCOc2ccc(Cl)cc2Cl)cc1Cl | -0.203

Compound | z-score
COc1ccccc1CCNC(=O)C(=O)NCC1OCCN1S(=O)(=O)c1ccc(Br)cc1 (stereo not drawn) | -0.0454
Cn1c(=O)c2c(nc(CN3CCC(C(N)=O)CC3)n2Cc2c(Cl)cccc2Cl)n(C)c1=O | -0.541
COC(=O)C(Cc1ccc(OC(=O)c2ccc(C(F)(F)F)cc2)cc1)N1Cc2ccccc2C1=O (stereo not drawn) | -0.102
CCOC(=O)C1CCCCN1C(=O)CCc1c(C)nc2ncnn2c1C (stereo not drawn) | -0.148
O=C(NCc1cccnc1)c1cc(Sc2ccccc2Cl)nc2ccccc12 | -0.668
c1ccc(Cn2nnc3c(N4CCOCC4)ncnc32)cc1 | 0.38
CC(C)(C)OC(=O)NCCCCCc1nnc(SCC(=O)Nc2cccc(Cl)c2)o1 | -0.352
COc1cc2c3nnc(-c4ccc(F)cc4)c-3cn(Cc3ccc(C)cc3)c2cc1OC | 0.00189
Cc1cccnc1NC(=O)C1CCN(S(=O)(=O)c2cccs2)CC1 | 0.38
O=C(Nc1ccc2c(c1)CCC2)C1CCCO1 (stereo not drawn) | 0.118
CC1CCN(C(=O)CNC(=O)Cn2ccc3ccccc3c2=O)CC1 | 0.0333
COc1ccc(CCNC(=O)CSc2ccccc2)cc1OC | 0.0503
O=C(Nc1ccccc1)c1ccccc1NC(=O)C1CCCCC1 | -0.109
O=C(CSc1nnnn1-c1ccc2c(c1)OCCO2)N1CCc2ccccc21 | -0.117
O=C(NCc1ccccc1)c1ccc(N2C(=O)C3CCCCC3C2=O)cc1 (stereo not drawn) | -0.0469
CN(C)c1ccc(NC(=O)CN2CCN(S(=O)(=O)c3cc(Cl)ccc3Cl)CC2)cc1 | -0.25
COc1ccc(Oc2nc(-c3ccccc3)ncc2S(=O)(=O)c2ccccc2)cc1 | -0.00536
O=S(=O)(c1ccc(Oc2ccc(Br)cc2)cc1)N1CCOCC1 | 0.609
Cc1c(/C=N/n2cnnc2)c2ccccc2n1CCOc1ccccc1 | 1.35
CC(C)(O)C#Cc1ccccc1C(=O)NC(CC(N)=O)C(=O)O (stereo not drawn) | 0.0593
COCCN(CCOC)c1nc(S(=O)(=O)c2ccc(C)cc2)c(Cl)s1 | -0.49
CCN1C(=O)C(CC(=O)Nc2ccc(OC)cc2)N(Cc2cccs2)C1=S (stereo not drawn) | -0.467

Compound | z-score
O=C1c2ccccc2NC(c2ccccn2)N1c1ccc(Cl)cc1 (stereo not drawn) | -0.0763
CC1(C)CC2CC(C)(CN2S(=O)(=O)c2ccc(C(=O)Nc3ccc(S(=O)(=O)N4CCOCC4)cc3)cc2)C1 (stereo not drawn) | -0.113
CCc1nnc(NC(=O)CSc2nnc(CNc3cccc(Cl)c3)n2CC)s1 | -0.0931
CN(C)c1cc(-c2ccccc2)nc(N)n1 | -0.197
CNC(=S)NCCN1CCOCC1 | -0.328
N#Cc1cn(-c2ccccc2)nc1-c1ccccc1 | -1.14
COc1ccc(C2SCCN2C(=S)Nc2ccc(Cl)cc2)cc1 (stereo not drawn) | 1.03
CCC(C)NC(=O)CC1Oc2ccc(Cl)cc2NC1=O (stereo not drawn) | -0.00317
COC(=O)c1cc(NC(=O)c2cccc(C(F)(F)F)c2)c(=O)oc1C/C=N/OCc1cccc(Cl)c1Cl | -0.115
CCCOC(=O)Nc1cc(OC)c(Cl)cc1OC | -0.241
CC1=NN(C(=O)c2c(Br)cnn2C)C(O)(C(F)(F)F)C1 (stereo not drawn) | -0.132
Cc1ccc(S(N)(=O)=O)cc1NC(=O)C1CC2CCC1C2 (stereo not drawn) | 0.686
CCOc1cc(C(=O)N2CCCC2)cc(OCC)c1OCC | -1.19
Cc1ccc(C(=O)Nc2ccc(S(=O)(=O)NCc3ccco3)cc2)cc1 | 0.0377
CC(C)NC(=O)c1ccccc1NC(=O)/C=C/c1cccc([N+](=O)[O-])c1 | -0.52
CC(C)(C)n1nnnc1C(c1ccc(Cl)cc1)N1CCSCC1 (stereo not drawn) | -0.187
O=C(Cc1ccc2c(c1)CCCC2)Nc1ccc2ccccc2c1 | -0.121
COC(=O)c1c(NC(=O)C2(C)Cc3ccccc3C(=O)O2)sc2c1CCCC2 (stereo not drawn) | -1.03
O=c1[nH]c(N2CCOCC2)nc2ncn(Cc3ccccc3)c12 | 0.18
CCCc1nc2ccccc2c(C(=O)OCC(=O)Nc2cccc(S(=O)(=O)N3CCOCC3)c2)c1CC | 0.196
Cc1ccc(C(=O)N2CCN3C(=O)c4ccccc4C23c2ccc(Cl)cc2)cc1 (stereo not drawn) | -0.253
Cc1nn(Cc2c(Cl)cccc2Cl)c(C)c1NC(=O)c1cnn2c(C(F)F)cc(-c3ccccc3)nc12 | -0.375

Compound | z-score
CCOC(=O)c1c(C)[nH]c(C(=O)COC(=O)c2oc3ccccc3c2C)c1C | 0.099
Cc1cc2nc(-c3ccc(SCC(=O)Nc4ccc(S(=O)(=O)NC5CC5)cc4)nc3)[nH]c2cc1C | -0.174
Cc1ccc(S(=O)(=O)c2ccc(Cl)cc2)cc1S(=O)(=O)NC(C)C(=O)O (stereo not drawn) | -0.233
COc1cc(OC)cc(-c2nnc(SCC(=O)Nc3cc(C)on3)o2)c1 | 0.123
C=CCN1C(=O)/C(=C2/Sc3ccccc3N2CCCS(=O)(=O)O)SC1=S | -0.352
CCCn1c(SCC(=O)Nc2ccc3c(c2)OCCO3)nnc1-c1ccco1 | -0.847
O=C(C(c1ccccc1)c1ccccc1)N1CCN(CCN2C(=O)c3cccc4cccc(c34)C2=O)CC1 | -0.291
O=C(CN(Cc1ccccc1F)C(=O)Cn1nnc(-c2cccs2)n1)NCC1CCCO1 (stereo not drawn) | -0.205
CCCCC(=O)NC(Nc1nc(C2CC2)cs1)(C(=O)OCC)C(F)(F)F (stereo not drawn) | -0.154
Nc1nnc(N2CCCCCC2)s1 | 0.397
Cc1ccc(S(=O)(=O)N/N=C\c2cc3c(cc2Br)OCO3)cc1 | 0.0271
CCC(CC)NC(=O)COC(=O)c1cccc(C)c1O | -0.101
O=C(/C=C/c1ccco1)NC(=S)Nc1nc(-c2ccc3ccccc3c2)cs1 | 0.121
C=CCn1c(-c2cccn(Cc3cccc(Cl)c3)c2=O)n[nH]c1=S | -0.0224
O=C1c2ccsc2SCCN1Cc1cccc(Cl)c1 | -0.274
CCCS(=O)(=O)N1CCC(C(=O)NCCN2CCCC2)CC1 | -0.0743
CCOC(=O)C1CCCN(C(=O)c2ccc3c(c2)NC(=O)C(N2CCOCC2)S3)C1 (stereo not drawn) | 0.245
Cc1ccc(/C=N/NC(=O)c2csc3c2CCCC3)cc1 | 0.0975
CCOc1cc(/C=N\NC(N)=O)cc(Br)c1OC(C)C | -0.0957
COc1ccc(-c2c(C#N)c(N)nc3sc(C(=O)c4ccccc4)c(N)c23)cc1 | -0.254
